These results are taken from patent US7812121B2 (priority 2006, dated 2010).

This data set can be described thus: SEC-SLS solution molecular weight / self-association. The class given is physicochemical. Particulars: purified mimetibody.

B1: SEQ ID NO: 77: GLP-2 mimetibody with A2G, N16G, L17Q analog (protein)
chain: HGDGSFSDEMNTILDGQAARDFINWLIQTKITDGSGGGSGTLVTVSS[in this place human IgG4 Fc with S228P F234A L235A (EU numbers)]
modifications: GLP-2 Mimetibody nucleic acid sequence with A2G, N16G, L17Q mutation
Regarding B1, the “SEC-SLS association state of mimetibodies” value is given as “molecular weight consistent with monomer”.

B2: SEQ ID NO: 75: GLP-2 mimetibody with A2G, L17Q analog (protein)
chain: HGDGSFSDEMNTILDNQAARDFINWLIQTKITDGSGGGSGTLVTVSS[in this place human IgG4 Fc with S228P F234A L235A (EU numbers)]
modifications: GLP-2 Mimetibody amino acid sequence with A2G, L17Q mutation
Regarding B2, the “SEC-SLS association state of mimetibodies” value was “monomer and dimer mixture”.
